# Source: patent US20130045931A1 (priority 2010, published 2013)
# Tested on: Klebsiella pneumoniae (ATCC 700603, extended β-lactamase resistance)
# Assay: Antibacterial test, clinically relevant strains (Sahly et al. 2003)
substance,measurement,value
mayamycin,IC50,2.5 µM
